Results on 29 molecules are retold here after PubChem BioAssay AID488969 (Vanderbilt High Throughput Screening Facility, 2010).

SMILES strings stand for the structures. In all, about 110,000 compounds were measured (“z-score”: median about -0.1, highest 2% from about 2 on). The list shows a part of the results.

The assay deals with Metabotropic glutamate receptor 8 (Rattus norvegicus) (UniProt P70579). The experiment in a line: rat mGluR8 modulators via GIRK flux, primary screen, cell-based, thallium flux, HTS (AID 488969). The conditions noted are these: HEK293 rat mGluR8, GIRK (G protein-gated inwardly rectifying potassium channel) thallium flux, FluoZin2; at 10 µM; stronger effect = higher value; submaximal glutamate (EC20) added with thallium.
UniProt P70579, sequence (P70579 whole entry, looked up): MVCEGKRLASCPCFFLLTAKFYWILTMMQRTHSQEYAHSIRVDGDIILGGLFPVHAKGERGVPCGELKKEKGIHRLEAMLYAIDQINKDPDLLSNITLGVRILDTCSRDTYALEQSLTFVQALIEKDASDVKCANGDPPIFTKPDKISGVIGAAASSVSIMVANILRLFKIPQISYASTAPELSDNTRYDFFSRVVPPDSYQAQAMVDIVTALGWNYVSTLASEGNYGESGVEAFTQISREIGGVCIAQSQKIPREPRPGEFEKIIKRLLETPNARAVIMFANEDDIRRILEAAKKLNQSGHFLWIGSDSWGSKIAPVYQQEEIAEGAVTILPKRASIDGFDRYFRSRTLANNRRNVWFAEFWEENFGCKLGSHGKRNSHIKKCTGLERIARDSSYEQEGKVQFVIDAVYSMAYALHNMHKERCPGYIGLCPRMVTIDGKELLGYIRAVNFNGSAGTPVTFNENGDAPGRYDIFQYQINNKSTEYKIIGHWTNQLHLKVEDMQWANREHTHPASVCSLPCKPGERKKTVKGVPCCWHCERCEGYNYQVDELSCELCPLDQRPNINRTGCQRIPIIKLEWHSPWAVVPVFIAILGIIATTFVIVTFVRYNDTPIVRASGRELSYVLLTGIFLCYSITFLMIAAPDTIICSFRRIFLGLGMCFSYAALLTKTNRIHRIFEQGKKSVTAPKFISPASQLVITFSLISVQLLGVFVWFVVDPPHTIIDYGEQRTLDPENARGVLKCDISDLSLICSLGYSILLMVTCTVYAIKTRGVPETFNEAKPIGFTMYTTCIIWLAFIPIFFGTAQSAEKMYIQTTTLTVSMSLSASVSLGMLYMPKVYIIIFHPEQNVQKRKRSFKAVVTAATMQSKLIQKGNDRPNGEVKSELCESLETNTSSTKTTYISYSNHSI
`CC1=C(C#N)C(c2cccnc2)C2=C(CC(c3ccc(Cl)cc3)CC2=O)N1` (centres undefined) gave a z-score of 0.137.
The molecule `COc1cccc(/C=N/N2C(=O)NC3(CCCCC3)C2=O)c1O` yielded a z-score of -0.173.
With `CC1(C)CC(=O)c2cc(C(=O)N3CCN(CCO)CC3)c(=O)n(-c3ccc(Cl)cc3)c2C1`, the z-score was -0.773.
The same measure for `NC(=O)N/N=C/c1cc(Br)ccc1OCC(=O)NCc1ccccc1`: -0.356.
In the case of `Cc1ccnc(NC(=O)C2CCCN(S(=O)(=O)c3cnc[nH]3)C2)c1` (centres undefined), the z-score was -0.0129.
In the case of `CCOC(=O)c1c(NC(=O)C2CCCO2)sc2c1CCC2` (centres undefined), the z-score is -0.878.
For `Cc1onc(-c2ccccc2)c1C(=O)NC(C)C`, the z-score is -0.244.
The molecule `O=C(CSc1nnc(-c2c[nH]c3ccccc23)o1)N(Cc1ccccc1)c1ccc(F)cc1` gave a z-score of -0.0763.
`COc1ccc(OC)c(Nc2cc(C(=O)NCCCN3CCOCC3)c3ccccc3n2)c1` showed a z-score of -1.13.
As to `CCc1nc2sc3c(c2c(=O)n1NC(=O)CCl)CCCC3`, the z-score was -0.281.
The same measure for `CCN(CCO)c1nc(SC)nc2c1sc1nc(-c3ccco3)c3c(c12)CCC3`: -0.0729.
Regarding `CCn1cc(C(=O)Nc2ccc3c(c2)OCCO3)c2cc(OC)c(OC)cc2c1=O`, the z-score is -0.483.
Turning to `O=C(CCN1C(=O)/C(=C\c2cccs2)SC1=S)NC1=NCCS1`, the z-score is -0.557.
As to `O=C(COC(=O)c1cccnc1Nc1cccc(C(F)(F)F)c1)NCCN1C(=O)CSC1=O`, the z-score was -0.143.
The molecule `O=C(Cc1coc2ccc3ccccc3c12)Nc1nnc(C2CC2)s1` had a z-score of -0.082.
For `COc1ccc(-c2nnc(SCC(=O)NCc3cccs3)n2C)cc1`, the z-score is -0.0999.
`CC1CCCCN1C(=O)CSc1nnc(-c2cccnc2)n1C1CCCCC1` (centres undefined) gave a z-score of 0.109.
As to `O=C(O)CCc1ccc(-c2ccc(F)cc2)n1CC(=O)O`, the z-score is -0.104.
The molecule `Cc1nc2ccc(S(=O)(=O)N(C)CC(=O)NCc3ccc4c(c3)OCO4)cc2s1` registered a z-score of 0.73.
Turning to `N#Cc1c(N)n(CCOC(=O)c2cccc([N+](=O)[O-])c2)c2nc3ccccc3nc12`, the z-score is -0.616.
The same measure for `CC1=C(C(=O)NCc2ccccc2)C(c2cc(Br)cc(Br)c2OC(C)C)NC(=O)N1` (centres undefined): 0.112; for `CCCC(=O)NC1=C(C#N)C2(CCCC2)Cc2ccccc21`: 0.0108; for `CCOc1ccc(CCNC(=O)c2cc3sccc3n2CC)cc1OCC`: -1.07.
The molecule `COc1ccc2c(c1)C(c1ccccc1)=NNC(c1ccco1)=N2` gave a z-score of 0.179.
`COc1ccc(N2C(=O)CC(Nc3ccc(N4CCOCC4)cc3)C2=O)c(OC)c1` (centres undefined) had a z-score of -0.0673.
For `CCOC(=O)CSc1nnc(CSc2nc3ccccc3c(=O)[nH]2)n1-c1ccccc1`, the z-score was -0.56.
To `C=CCN(CC=C)S(=O)(=O)c1ccc(NC(=S)NC(=O)/C=C/c2ccc(C)cc2)cc1` belongs -0.0815.
Take `Cc1cc(NC(=O)c2cnn3cccnc23)n(-c2ccccc2)n1`: the z-score is -0.232.
The molecule `O=C(CSCc1ccc(Cl)cc1)Nc1ccc(S(=O)(=O)N2CCOCC2)cc1` displayed a z-score of -1.31.
